Over roughly 110,000 compounds, “z-score” has its median near -0.1; the highest 2% begin near 2. Some of the results follow. Calls of active or inactive are those of the source.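 Rule for the calls: active = z-score in the third read window above 3 or below -3; inactive = the rest.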

In the assay the target is Metabotropic glutamate receptor 8 (Rattus norvegicus) (UniProt P70579). Briefly: mGluR8 Gi/Go-coupled signaling modulation – cell-based, rat, thallium flux, HTS, primary screen (AID 488969). Conditions: HEK293 rat mGluR8, GIRK (G protein-gated inwardly rectifying potassium channel) thallium flux, FluoZin2; at 10 µM; stronger effect = higher value; submaximal glutamate (EC20) added with thallium.
UniProt P70579, sequence (P70579 whole entry, looked up): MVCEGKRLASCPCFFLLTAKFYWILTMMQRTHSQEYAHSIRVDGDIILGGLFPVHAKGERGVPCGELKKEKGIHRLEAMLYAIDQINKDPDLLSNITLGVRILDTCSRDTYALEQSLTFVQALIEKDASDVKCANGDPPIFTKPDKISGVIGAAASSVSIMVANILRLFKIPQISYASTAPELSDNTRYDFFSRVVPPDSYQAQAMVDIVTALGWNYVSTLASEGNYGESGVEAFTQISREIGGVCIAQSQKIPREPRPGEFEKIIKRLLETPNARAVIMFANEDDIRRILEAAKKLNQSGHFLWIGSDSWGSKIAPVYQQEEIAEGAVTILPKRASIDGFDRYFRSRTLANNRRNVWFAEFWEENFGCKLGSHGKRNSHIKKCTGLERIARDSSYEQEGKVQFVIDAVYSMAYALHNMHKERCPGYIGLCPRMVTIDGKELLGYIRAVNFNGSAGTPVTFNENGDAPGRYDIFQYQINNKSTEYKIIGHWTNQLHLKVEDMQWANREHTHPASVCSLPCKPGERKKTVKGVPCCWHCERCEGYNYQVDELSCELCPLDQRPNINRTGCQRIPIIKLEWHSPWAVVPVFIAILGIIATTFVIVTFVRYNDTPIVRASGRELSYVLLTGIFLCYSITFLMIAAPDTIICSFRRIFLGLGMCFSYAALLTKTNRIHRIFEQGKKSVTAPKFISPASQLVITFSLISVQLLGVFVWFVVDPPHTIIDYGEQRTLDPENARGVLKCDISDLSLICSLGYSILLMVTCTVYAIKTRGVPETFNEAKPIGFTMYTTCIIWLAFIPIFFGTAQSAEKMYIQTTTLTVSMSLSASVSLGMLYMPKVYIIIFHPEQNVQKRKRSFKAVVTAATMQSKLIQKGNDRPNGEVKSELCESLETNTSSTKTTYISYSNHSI
Regarding `CCCn1c(CC)nc([N+](=O)[O-])c1S(=O)(=O)c1ccccc1`, the z-score is -0.218. Regarding `COc1ccc(N2CCN(CCCNS(=O)(=O)c3c(C)noc3/C=C/N(C)C)CC2)cc1`, the z-score was 0.114. Then `COc1cc(C)ccc1OCCOCCOc1ccc(C)cc1[N+](=O)[O-]`, with -0.332. Then `COc1ccc(NC(=O)N(Cc2ccc3c(c2)OCO3)C2CC(=O)N(c3ccc(OC)cc3)C2=O)cc1` (stereo not drawn), with 0.0823. With `COc1cc(CNCc2ccco2)ccc1OCc1ccccc1`, the z-score came to 0.00912. For `Cc1ccc2cc(C)c3nnc(SCC(=O)N4CCN(C(=O)c5ccco5)CC4)n3c2c1`, the z-score was -1.02. Then `O=C(Nc1ccccc1)c1cccc(-c2nnc(-c3ccccc3)o2)c1`, with 0.0469; and `CCCCCCCCNC(=O)/C(C#N)=C/c1ccccc1[N+](=O)[O-]`, with -0.0403.

In the case of `CC(C)CN1C(=O)NC(NC(=O)c2cccnc2)(C(F)(F)F)C1=O` (stereo not drawn), the z-score came out at 0.807. On to `CC(=O)N1CCN2C(=O)C1CCCC(=O)c1cc(C3CCCCC3)ccc12` (stereo not drawn), for which the z-score is -0.657. As to `Cc1occc1C(=O)N/N=C/c1c[nH]c2ccccc12`, the z-score was -0.213. Turning to `COc1ccccc1-c1cc(C(=O)N2CCc3ccccc3C2)c2ccccc2n1`, the z-score was -0.524. In turn, `Cn1c(=O)c2[nH]c(CNCc3ccccc3Cl)nc2n(C)c1=O` displayed a z-score of -0.537. The compound `Nc1c(C(=O)O)nnn1Cc1ccccc1` gave a z-score of -0.029. `CC1CCCN(C(=O)Nc2cccc(NC(=O)N3CCCC(C)C3C)c2)C1C` (stereo not drawn) showed a z-score of -1.26. In turn, `Cc1cccc(-n2cc[nH]c2=S)c1` showed a z-score of 0.0616. In the case of `O=C(NCCCN1CCOCC1)C1CCC(=O)N1C1CCCCC1` (stereo not drawn) it was -0.298. Turning to `COc1ccc(/C=N/NC(=O)CCn2c3ccccc3c3ccccc32)cc1O`, the z-score was -0.234. On to `Clc1ccc(/C=N/c2c(-c3ccco3)nc3ccccn23)cc1`, for which the z-score was 0.302. Turning to `O=C(CNC(=O)c1cccc(F)c1)N/N=C/c1cc(Br)ccc1OCc1ccccc1`, the z-score is -0.261. `CCn1c(=O)cc(OCC(=O)Nc2cc(C)ccn2)c2ccccc21` returned a z-score of -1.1. Then `Cc1cccc(C)c1OCCCCc1c(C)n[nH]c1C`, with 1.77; and `O=C(CCc1ccc(S(=O)(=O)N2CCOCC2)cc1)N/N=C/c1cccc(O)c1`, with -0.381.

The compound `Cc1cc(=O)n2[nH]c(-c3ccccc3)cc2n1` had a z-score of -0.312. Then `COc1ccc(OC)c(NC(=O)C2C3CCC(O3)C2C(=O)O)c1` (stereo not drawn), with -0.525; and `COc1ccc(-c2[nH]c(-c3ccc(SC)cc3)nc2SCC(=O)Nc2nccs2)cc1`, with 0.0167. `O=C1N=C(N2CCN(c3cccc4ccccc34)CC2)S/C1=C/c1cccs1`: the z-score was -0.0125.

`Cc1ccc(C)c(S(=O)(=O)Nc2cc(SCC(=O)O)c(O)c3ccccc23)c1` had a z-score of -0.346. In the case of `CCCOC(=O)c1ccc(NC(=O)C(=O)NCC2CCCO2)cc1` (stereo not drawn) it was -0.069; in that of `COC(=O)/C(=C(/F)SCC(C)=O)C(F)(F)F`, -0.12.

In turn, `Cc1cc2ncn(C(=O)N3CCC(C)CC3)c2cc1C` had a z-score of -0.138. Compound `COc1ccc(Cc2nnc(N)s2)cc1` gave a z-score of -0.0129.

Turning to `Clc1cc(Br)ccc1OCCCn1ccnc1`, the z-score amounted to 0.0482. Then `Cn1c(=O)c2cc(S(=O)(=O)NC(C(=O)NCc3ccccn3)c3ccccc3)ccc2n(C)c1=O` (stereo not drawn), with 0.48; and `CC1CC(C)CN(CC(C)(C)NS(=O)(=O)c2ccc(Cl)cc2)C1` (stereo not drawn), with 0.842; and `CCOC(=O)CC(NC(=O)c1cc2ccccc2oc1=O)c1cccc([N+](=O)[O-])c1` (stereo not drawn), with -0.356. The compound `Cc1c(C(=O)NCC2COc3ccccc3O2)oc2ccc(S(=O)(=O)N3CCOCC3)cc12` (stereo not drawn) registered a z-score of -0.366. In the case of `O=C(NCCc1ccccc1)Nc1ccc(Cl)cc1` it was 0.558. Then `Cc1nnc2c3ccccc3c(-c3ccc(O)cc3)nn12`, with -0.28; and `CCC(Sc1ncnc2sc(C)c(C)c12)C(=O)OC` (stereo not drawn), with -0.469; and `COc1ccc(C(C(=O)NC2CCCC2)N(C(=O)c2ccoc2C)c2ccc(C)cc2)cc1` (stereo not drawn), with -0.798. In the case of `CSc1cccc(NC(=O)CSc2ncccc2C(=O)Oc2cccc([N+](=O)[O-])c2)c1` it was -0.0293; in that of `Cc1ccc(Oc2coc3cc(OC(=O)c4cccs4)ccc3c2=O)cc1`, 0.0736; in that of `O=C(c1ccc(Br)o1)N1CCN(c2ccc3nnc(-c4ccc(F)cc4)n3n2)CC1`, active: -4.05. Compound `Cc1[nH]c2ccccc2c1C(=O)CN1CCCCC1C` (stereo not drawn) registered a z-score of 0.0814. Compound `CCC(C)NC(=O)c1ccc(NC(=O)C2CCCO2)cc1` (stereo not drawn) displayed a z-score of -0.155. In the case of `COc1ccc(N(CC(=O)Nc2ccc(C)cn2)S(=O)(=O)c2c(C)noc2C)cc1` it was -0.0762.

With `O=C(CNC(=O)c1ccco1)NCC(=O)OCc1ccc(C(=O)Oc2ccc(Cl)cc2)cc1`, the z-score was found to be 0.176. `CCN(CC)CCCNc1nc(-c2ccccc2)nc2ccccc12` yielded a z-score of -0.17. In the case of `CCOc1cc(-n2cnnn2)c(OCC)cc1NC(=O)c1cc2ccc(N(CC)CC)cc2oc1=O` it was -1.74; in that of `O=C1CC(=O)N(CCNc2ncc(C(F)(F)F)cc2Cl)C(=O)N1`, -0.0792. Then `CNC(=O)N(C1=NCCCCC1)c1ccc(Br)cc1`, with -0.628.

On to `CCOCCCNC(=S)NCCCNc1nc2cc3c(cc2cc1C#N)OCO3`, for which the z-score was -0.17. For the compound `Cc1cccc(OCC(=O)Nc2ccc3c(C)cc(=O)oc3c2)c1`, the z-score is -0.14.

The compound `O=C1c2ccccc2C(=O)N1c1ccc(S(=O)(=O)N2CCN(c3ccccc3)CC2)cc1` had a z-score of 1.43. In the case of `O=C(NCCc1ccccc1)c1ccc(Cl)c([N+](=O)[O-])c1` it was -0.188; in that of `Cc1ccc(CNC(=O)C2CCC(CNc3c(N4CCOCC4)c(=O)c3=O)CC2)cc1` (stereo not drawn), 0.00594. Then `CCN1CCN(C(=O)C2c3cc(OC)c(OC)cc3C(=O)N3CCc4ccccc4C23)CC1` (stereo not drawn), with -0.253; and `CC(=O)N1C(=S)NC(=O)/C1=C1/C(=O)N(CC(=O)Nc2cccc(C)c2)c2ccccc21`, with -0.229; and `CCn1c(-c2ccc(C)cc2)n[nH]c1=S`, with -0.192. On to `O=C(CN1C(=O)NC2(CCCCCCC2)C1=O)N1CCN(C(=O)c2ccco2)CC1`, for which the z-score was 0.034. Then `O=c1oc2ccccc2cc1-c1nc(-c2ccccc2)no1`, with -0.0794; and `N#CC(c1ccccc1)c1ccc(C(=O)c2ccc(F)cc2)cc1` (stereo not drawn), with 0.0236; and `O=C(O)CCc1ccc(-c2cccs2)n1NC(=O)c1ccc(Cl)cc1Cl`, with 1.18.

Consider `CCOC(=O)C(Cc1cc(C(C)=O)ccc1OC(C)C)C(=O)OCC`, for which the z-score was -0.835. In the case of `CCCCN(CCCC)C1=Nc2ccccc2N/C1=C(/C#N)C(=O)OCC` it was -0.582. `COc1ccc(/C(N)=N/OC(=O)C2CCC(=O)N2S(=O)(=O)c2ccc(C)cc2)cc1` (stereo not drawn) displayed a z-score of 0.116. The compound `CCC(=O)Nc1ccc(Br)c(Cl)c1` showed a z-score of 0.106. `Cc1nc(N)sc1-c1csc(NCc2ccccc2)n1` showed a z-score of -0.132.

For the compound `Cn1c2c(c(O)c(-c3ccccc3)c1=O)C(=O)CC(C)(C)C2`, the z-score is -0.119. In turn, `N#CCCN1CCN(S(=O)(=O)c2ccc(S(=O)(=O)NC3CCCCC3)cc2)CC1` yielded a z-score of 0.85. In the case of `CCOc1ccc(CC(=NCCc2ccccc2)C2=C(O)CC(C)(C)CC2=O)cc1OCC` it was -0.655; in that of `O=C(C1CCC(Cn2c(=S)[nH]c3ccccc3c2=O)CC1)N1CCN(c2ccccc2)CC1` (stereo not drawn), 1.21. `Clc1ccccc1CSc1nnc(-c2ccccn2)n1Cc1ccco1` returned a z-score of 0.314.

Compound `Nc1ccc(N2CCN(C(=O)c3cccs3)CC2)cc1` showed a z-score of 0.019. In the case of `Cc1cc(C(F)(F)F)n(-c2nc(C(=O)Nc3ccccc3Oc3ccccc3)cs2)n1` it was -0.474.

`Cc1cccc2c1N1C(=O)c3c(C(=O)O)cccc3C1CC2C` (stereo not drawn) displayed a z-score of -0.265.

In the case of `CCCn1c(CCC(=O)O)ccc1-c1cccs1`, the z-score is -0.107. In the case of `O=C(N/N=C/c1ccc(OC(F)F)cc1OC(F)F)c1ccc(Br)cc1` it was -0.281; in that of `COc1ccccc1-c1cc(C(F)(F)F)nc(N2CCCCC2)n1`, 0.684.

In turn, `CCOC(=O)c1c(CN2CCOCC2)n(-c2ccccc2)c2ccc(O)cc12` came in with a z-score of -0.21. Take `Cn1c(=O)c2cn(Cc3ccc(Cl)cc3)cc2n(C)c1=O`: the z-score came out at 0.574. `O=C(NNC(=O)c1ccc2c(c1)OCO2)NC1CCCCC1` returned a z-score of 0.0026. Then `O=C1CC(N2CCC(O)(c3ccc(Cl)cc3)CC2)C(=O)N1Cc1ccc(N2CCCC2=O)cc1` (stereo not drawn), with -0.0119; and `COc1cc(C(C)=O)ccc1OCC(O)CN1CCN(S(=O)(=O)c2ccccc2)CC1` (stereo not drawn), with 0.328. For `CC1=NC(C(F)(F)F)(C(F)(F)F)C2=C(CC(C)(C)CC2=O)N1Cc1ccco1`, the z-score was -0.165. Turning to `C/C(CC(O)c1ccc2ccccc2n1)=N/O` (stereo not drawn), the z-score was active: 5.27. `O=c1[nH]n(Cc2ccccc2)c(=O)c2ccccc12` gave a z-score of -0.204.

As to `CN1C(=S)SC(N(O)C(=O)Nc2ccccc2)C1(C)C` (stereo not drawn), the z-score came to 0.201. In the case of `O=C(Nc1ccc(S(=O)(=O)N2CCOCC2)cc1)c1ccc(CN2CCc3ccccc3C2)cc1` it was 1.33.

Regarding `CCOC(=O)N1CCN(C(=O)N2CCOCC2)CC1`, the z-score is 0.275. As to `CC(=O)NC(c1cccs1)c1cc([N+](=O)[O-])c2cccnc2c1O` (stereo not drawn), the z-score was -1.44. In turn, `COc1cccc(C(=O)NCC(=O)OCC(=O)Nc2cc(OC)c([N+](=O)[O-])cc2C)c1` showed a z-score of -0.124. Compound `Cc1cc(C)n(-c2ccc(C(=O)Nc3ccccn3)cc2)n1` yielded a z-score of -0.653. Then `Cc1cc(NC(=O)c2cnccn2)no1`, with -0.0463; and `Cc1ccc(N2C(=O)CSCC2=O)cc1`, with 0.0594. Turning to `CCOC(=O)Nc1ccc(OC)cc1S(=O)(=O)N1CCCCC1`, the z-score is 0.612. As to `CCOC(=O)c1c(-c2ccc(C)o2)csc1NC(=S)NC(=O)N(C)C`, the z-score was active: 13.6. `COc1ccc(OC)c2[nH]c(=O)c(CCNC(=O)c3ccc(S(=O)(=O)N4CCCC4)cc3)cc12` returned a z-score of 0.244. Then `CC(=O)N1CCc2cc(S(=O)(=O)CCC(=O)N3CCN(c4ccccn4)CC3)ccc21`, with -0.124. `Cc1ccc(S(=O)(=O)Nc2ccc(Cl)cc2C(=O)c2ccccc2)cc1` registered a z-score of -0.00219. In the case of `Cc1ccccc1C(=O)N1CCC(C(=O)Nc2ccc3c(c2)OCO3)CC1` it was 0.00741; in that of `CC#CCCCC(=O)Nc1ccc(C(=O)O)cc1`, 0.878. On to `O=C(Nc1sc2c(c1C(=O)O)CCC2)c1ccco1`, for which the z-score was 0.028. In the case of `CCOC(=O)C1=C(C)NC(C)=C(C(=O)OCC)C1C(=O)OCC(=O)NC(C)C` it was 0.154; in that of `O=C(Nc1ccc(Br)cc1)c1cnccn1`, 0.158; in that of `O=C(c1cccc(F)c1)N1CCN(c2ccc([N+](=O)[O-])c(N3CCCCC3)c2)CC1`, -0.439.

In the case of `CCOc1ncccc1C(=O)N(C)CC(=O)Nc1ccccc1SC`, the z-score is -0.119.
